According to the supplement of paper PMC4166925:
± gives the standard deviation of the averaged measurements. In all, about 33,000 sequences were measured (“E-score (dimensionless, -0.5 to 0.5)”: median about -0.046, highest 2% from about 0.36 on). The list shows a part of the results.

System: T1, SpTbr T-box DNA-binding domain (GST fusion)
T1 sequence: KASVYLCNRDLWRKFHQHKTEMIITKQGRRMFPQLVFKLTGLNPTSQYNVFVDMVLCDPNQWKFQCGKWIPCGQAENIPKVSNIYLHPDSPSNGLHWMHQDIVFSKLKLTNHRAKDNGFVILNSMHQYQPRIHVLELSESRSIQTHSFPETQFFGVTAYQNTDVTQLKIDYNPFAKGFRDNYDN
Assay: PBM E-score of 8-mer (E-score (dimensionless, -0.5 to 0.5)); Tbr is Tbrain of the sea star Patiria miniata (Pm) or the sea urchin Strongylocentrotus purpuratus (Sp); higher = stronger binding preference; most listed sequences are background and not binding sites
Conditions: the construct has about 5 more residues each side
Experimental: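 Universal protein-binding microarray (Agilent AMADID 016060, 60-bp probes with a 35-bp variable region) incubated with 200 nM GST-fused Strongylocentrotus purpuratus Tbr T-box DNA-binding domain (residues 362-554) in PBS pH 7.5. Scored for every ungapped 8-mer (given with its reverse complement) as E-score (range -0.5 to 0.5; >0.45 counts as bound) and Z-score of median probe intensity. Two replicate arrays (datasets 1 and 2).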
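Also: protein at 200 nM in PBS on universal double-stranded arrays.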

Row | Sequence | PBM E-score of 8-mer
1 | AGGACGTA | -0.147 ± 0.024
2 | ATGCACAG | -0.189 ± 0.041
3 | AAAACAGG | -0.046 ± 0.043
4 | CAGTCAAC | 0.0846 ± 0.028
5 | CAGTTTTC | 0.00318 ± 0.023
6 | AGCCTGAG | -0.0927 ± 0.018
7 | AGACAACC | -0.151 ± 0.058
8 | AATGTCAA | 0.0456 ± 0.097
9 | CATTAAGA | -0.175 ± 0.03
10 | AGCAGCCC | -0.138 ± 0.068
11 | ACATAAAG | -0.107 ± 0.029
12 | GGGCTCTA | -0.127 ± 0.064
13 | TATGCAGA | -0.00494 ± 0.043
14 | ACAGGTTC | 0.154 ± 0.0024
15 | AAGTAGGA | 0.0305 ± 0.051
16 | CGATACCG | 0.00715 ± 0.0048
17 | CCCATCGA | -0.2033 ± 0.0016
18 | GTAAGTGA | 0.212 ± 0.025
19 | CGATATGA | 0.0535 ± 0.0023
20 | ACTTGCTA | 0.175 ± 0.037
21 | CTCCTCCC | -0.227 ± 0.022
22 | AATTGCTA | -0.00496 ± 0.11

Row | Sequence | PBM E-score of 8-mer
23 | ACCCCCGT | -0.0835 ± 0.017
24 | CCTTACGC | 0.234 ± 0.049
25 | AATTACTA | -0.0984 ± 0.045
26 | CATATTAC | -0.0619 ± 0.059
27 | CATACTCC | -0.197 ± 0.027
28 | AGTTGCTG | 0.0861 ± 0.023
29 | AAGATACG | 0.0921 ± 0.034
30 | CGCATAAG | 0.0206 ± 0.001
31 | GCTGAAAC | -0.125 ± 0.041
32 | AATGCTGG | -0.157 ± 0.0084
33 | AGACTCGC | -0.00607 ± 0.025
34 | ACGGGGCA | -0.207 ± 0.076
35 | ATGAGTCG | -0.176 ± 0.071
36 | GACAGCTA | 0.19 ± 0.053
37 | ATTCTGGG | -0.199 ± 0.01
38 | CCCGCGGA | -0.00551 ± 0.091
39 | AAACCAAG | -0.0255 ± 0.031
40 | ATTAAATA | -0.15 ± 0.14
41 | ATACAGGC | -0.0584 ± 0.0012
42 | CCTGCAAC | -0.0401 ± 0.032
43 | ATTATCAG | -0.0571 ± 0.018
44 | AGATGTAC | -0.2621 ± 0.0025

Row | Sequence | PBM E-score of 8-mer
45 | AGGGTAAC | 0.0635 ± 0.029
46 | CGATGAGA | -0.126 ± 0.083
47 | CCTATGTA | -0.254 ± 0.11
48 | AGCAGGTA | -0.132 ± 0.031
49 | GTATAGAC | -0.196 ± 0.021
50 | ACCAAGGC | -0.0804 ± 0.11
51 | CGCAAACG | 0.041 ± 0.032
52 | CAAACCGG | 0.0381 ± 0.099
53 | CGGCGCTA | 0.152 ± 0.019
54 | GCAGATGA | -0.205 ± 0.02
55 | GCTCTGAA | -0.261 ± 0.022
56 | ATCCGGGA | -0.173 ± 0.028
57 | ATAGTCAC | 0.178 ± 0.039
58 | AGTGTCCG | 0.0673 ± 0.038
59 | AGGATATC | -0.107 ± 0.0085
60 | AAGGTCCC | -0.175 ± 0.003
61 | ACGGTAAC | -0.0798 ± 0.0085
62 | ACGAATCT | 0.000655 ± 0.053
63 | GCCACAAA | 0.12 ± 0.012
64 | CAGACCGA | -0.328 ± 0.0075
65 | CTTGATCA | 0.113 ± 0.004
66 | CGATTCAA | 0.0122 ± 0.082

Row | Sequence | PBM E-score of 8-mer
67 | CATGTGGA | 0.0666 ± 0.051
68 | GGGCTCAC | 0.0842 ± 0.098
69 | ACCAGGTC | -0.0923 ± 0.02
70 | AGACGAAC | -0.0672 ± 0.049
71 | CTCTACAC | 0.0043 ± 0.01
72 | CAGGACAA | -0.0614 ± 0.1
73 | GAAAATCA | -0.119 ± 0.076
74 | CCGTACGA | -0.19 ± 0.043
75 | CCGGCCGC | -0.0792 ± 0.084
76 | CCCACGTA | -0.0631 ± 0.1
77 | AGTCATGC | -0.272 ± 0.064
78 | CTTCACCA | 0.088 ± 0.067
79 | ACACTCAG | 0.232 ± 0.042
80 | AGGAAATA | -0.00822 ± 0.0018
81 | ACAGTGTC | 0.213 ± 0.0024
82 | TGTCAAAA | 0.289 ± 0.021
83 | AATTGTAT | -0.0215 ± 0.075
84 | ATTTTGGA | -0.293 ± 0.0075
85 | CACTTCCC | 0.3234 ± 0.001
86 | AAAAAAGG | -0.0919 ± 0.016
87 | CTGAAATC | -0.129 ± 0.072
88 | CTCTAGGA | -0.251 ± 0.049

Row | Sequence | PBM E-score of 8-mer
89 | AGCCCTGA | -0.235 ± 0.051
90 | AGGAATCA | -0.0267 ± 0.014
91 | AATTCTAT | -0.097 ± 0.025
92 | CCTTTGCG | -0.0181 ± 0.026
93 | ACTGAATC | -0.259 ± 0.018
94 | GAGTCGTA | 0.0581 ± 0.035
95 | GGCCCGTA | -0.255 ± 0.018
96 | GTTGTGTA | -0.0209 ± 0.068
97 | CCAATCAC | 0.204 ± 0.031
98 | TCTAACAA | 0.0792 ± 0.049
99 | TCCCGGCA | -0.0546 ± 0.024
100 | CAAGAAAG | -0.176 ± 0.025
101 | CTTGTATA | -0.114 ± 0.019
102 | CCACCCCC | 0.0722 ± 0.01
103 | AGGAACCA | -0.0655 ± 0.16
104 | AGTACTGC | -0.0583 ± 0.0057
105 | ATGTGCTG | 0.161 ± 0.0054
106 | GTCTGTGA | 0.0568 ± 0.00098
107 | ATACCAAC | 0.0957 ± 0.0081
108 | AATTGCTG | -0.167 ± 0.018
109 | ACACGGCT | 0.165 ± 0.026
